To fix the notation:
T1: UNK ZnF1-3 (human, UniProt Q9C0B0 31-174)
T1 sequence: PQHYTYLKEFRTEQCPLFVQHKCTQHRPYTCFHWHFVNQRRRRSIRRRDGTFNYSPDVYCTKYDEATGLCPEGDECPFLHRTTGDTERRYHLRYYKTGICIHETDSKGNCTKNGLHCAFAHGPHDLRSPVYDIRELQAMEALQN

B1: chr11:57926588:57926589:+_ENSMUSG00000020515_ENSMUST00000020822|mus_hu|motif|central (ssRNA)
RNA: GGGAGUUCUACAGUCCGACGAUCGUCAAUCCCUUCCUCUUCAUGCUUCUGAAACUGUAGUCCUGAGUUAGCAAGGAGAUCGGUGGAAUCCUGGGAGUACAUGUCCUCUGUAAGGUUAAAUUUGAAAUUGAACUGCCAAGUAUUCAACAGAGGAUUGAGCAUCA
B2: chr5:37680062:37680063:+_ENSMUSG00000029121_ENSMUST00000031004|mus_hu|mus_mus_mus_hu_False|18_78 (ssRNA)
RNA: GGGAGUUCUACAGUCCGACGAUCUUUGGGUGUAGCUGGUACCUCGUACACAGGACCAUCGUACAUGCCCCUGGAAACCCCUUGCAAUCCAAAAACCUUAUUCCUGAUUUUGACGCGCUGGUAGAGAUGCUCCGGGAACGCCUUCAACAGAGGAUUGAGCAUCA
B3: chr2:119552488:119552489:+_ENSMUSG00000027304_ENSMUST00000028767|mus_mus|FALSE|FALSE (ssRNA)
RNA: GGGAGUUCUACAGUCCGACGAUCAAACAUCGCUUCUUUCCACUUCAUGAAUUCACUUUCAGUGAAUUCUUGGUUGGACACAAACUCUAGGCGGAACACUCGCUGGUCAUUGCCAUGCCGUAGCUGGAGCCCUUUAUUUGUUCUCAACAGAGGAUUGAGCAUCA
B4: chr2:30381511:30381512:+_ENSG00000119801_ENST00000261353|hu_mus|FALSE|FALSE (ssRNA)
RNA: GGGAGUUCUACAGUCCGACGAUCCAUGUGGCGGCCAGUGAGCAUGACCCGAUCUUGAACUUCACUGUACUGCAAGUUAACUACCUUGUUAAAAAGAAAUGCUCUACCAGUGGCGCCUGUGAACCGAGUAGAGAUGAGUUCUGACAACAGAGGAUUGAGCAUCA
B5: chr15:42709458:42709459:-_ENSG00000103994_ENST00000263805|hu_hu|motif|central (ssRNA)
RNA: GGGAGUUCUACAGUCCGACGAUCUCACCAAGAAAGGGAAGAGAGUGGCCUGUGUGGGGGGCCAAUGUGAAAAUAGUUCAACGGAUGACUUCCCAACGUGGGAGGCAAAAAACUUCAUGAAUCAAUUUUGCUGUCAUCUUCAGCCAACAGAGGAUUGAGCAUCA
B6: chr2:65473708:65473709:+_ENSG00000138071_ENST00000260641|hu_hu|motif|central (ssRNA)
RNA: GGGAGUUCUACAGUCCGACGAUCUUUCUCUGGUCCAAAUGUGUAGUCCCACAGGUGUUUCAUGUCAUCCCAAUUUCGUACGGUGCCAUUUUCCAUAGGGUAGUUAACUUCUAACAUUGAUCGUAAUUCACUUGCCUCAUCACCCAACAGAGGAUUGAGCAUCA
B7: chr6:145182920:145182921:-_ENSMUSG00000030265_ENSMUST00000032399|mus_mus|FALSE|FALSE (ssRNA)
RNA: GGGAGUUCUACAGUCCGACGAUCCUCCUCUUGACCUGCUGUGUCGAGAAUAUCCAAGAGACAGGUUUCUCCAUCAAUUACUACUUGUUUCCUGUAGGAGUCCUCUAUCGUAGGGUCAUACUCAUCCACAAAGUGAUUCUGAAUCAACAGAGGAUUGAGCAUCA
B8: chr1:196642661:196642662:+_ENSMUSG00000026640_ENSMUST00000027952|mus_mus|FALSE|FALSE (ssRNA)
RNA: GGGAGUUCUACAGUCCGACGAUCUCCCAUACAUUCAGGAACUUUGGUCCUGUUUGGUGGGGACCACACUUCUUUAUGCGUGGAUGUCAAAAUGGAGACCAAGCGUGUCAAAAUGAUGACCUUGACUGAGUCUCAAAGAAGCUUCAACAGAGGAUUGAGCAUCA
B9: chr7:135612270:135612271:-_ENSG00000105887_ENST00000393085|hu_mus|hu_hu_hu_mus_False|8_98 (ssRNA)
RNA: GGGAGUUCUACAGUCCGACGAUCGUUUUUUUCUGAGUAAGUAUUACGUACUUCAGUGGAAAACAAAACUUAACCUUUUAUUAAUGCGUGUUGUACCAAAAGCAGACAUUUUAGCUUCAUUUAUUCACUCAAAAUAUCAUUAAGCAACAGAGGAUUGAGCAUCA
B10: chr5:141111964:141111965:-_ENSMUSG00000036565_ENSMUST00000042661|mus_mus|FALSE|FALSE (ssRNA)
RNA: GGGAGUUCUACAGUCCGACGAUCGUGCUCGUCUGUCUUUCUCCUCCGGCAGCACAGCCAGAAGGAAUAGAAGAGUAGGAAGAGGAGAUCUAGGGCCAGGCAGGCCAGGGCGGUGGCCCCCAGCAGCAGCAACGCCUGCUGGUACAACAGAGGAUUGAGCAUCA
B11: chr4:140556289:140556290:+_ENSMUSG00000036622_ENSMUST00000037055|mus_mus|mus_mus_mus_hu_False|28_48 (ssRNA)
RNA: GGGAGUUCUACAGUCCGACGAUCGAUGGAGCUCACCAGGCCCCCUUUUGCCGUGCAGAACCCUGUGCGGGUCACCACUGCCAGGACACGGGGUCCCACAUAGGCCCGGGCCUGCAGGAUGAGGGUCCCGCAGAAGAGUGUGUGCAACAGAGGAUUGAGCAUCA
B12: chr4:76721835:76721836:+_ENSG00000138768_ENST00000264904|hu_mus|hu_hu_hu_mus_True|1_28 (ssRNA)
RNA: GGGAGUUCUACAGUCCGACGAUCGUUUGGCUGGGGUUUCUGAGACGCUCUGGAAUAUAACUCAUGUUUGCUAAUAAAUCCUAGUUUCUCUAUGAAAUUCUCUUUGCAAUCCUCUUCCUCUAUUAGUUGCUUUAGUUCUCUUUCCAACAGAGGAUUGAGCAUCA
B13: chr5:145888941:145888942:+_ENSMUSG00000029622_ENSMUST00000085679|mus_hu|FALSE|FALSE (ssRNA)
RNA: GGGAGUUCUACAGUCCGACGAUCCUCCACAUUUUGAAGCAGUUCAUGACCAGCAUAGUGCUUUGGGGGCAUUUUUUUUUUUUUUCAAUAAAUGAAAGCAUUUAAGAAAAAGGCACGUAUUCCUUGAAUAGGUAAGAAAAGCUCCAACAGAGGAUUGAGCAUCA
B14: chr16:75661828:75661829:-_ENSG00000065427_ENST00000302445|hu_mus|FALSE|FALSE (ssRNA)
RNA: GGGAGUUCUACAGUCCGACGAUCAUGUGCCUUCUAGACAGAGGGGCUGGCCUCUGUGCUCUCUGGGGUUUCAGUGGUCGCUGCAGUUUCCUUCUUGUCCUCUGGCUUCAUGGCAGGAAACAGAAGUACUUCCUUGAUAUUGUUCAACAGAGGAUUGAGCAUCA

Some of the results follow.

The target in the experiment is T1, UNK ZnF1-3. Kind of experiment: nsRBNS (natural sequence RNA bind-n-seq); RBNS binding buffer (assumed for nsRBNS): 25 mM Tris pH 7.5, 150 mM KCl, 3 mM MgCl2, 0.01% Triton X-100, 500 ug/ml BSA, 20 U/ml SUPERase-In, 4 C; UNK is unkempt and MSI1 is Musashi-1; names of the RNAs are library labels; protein concentration not given here; high values mean tight binding.
As for B1, the binding signal came out at 1.24 enrichment R.
For the molecule B2, the binding signal is 0.765 enrichment R.
With B3 the figure was 0.627 enrichment R; with B4, 1.23 enrichment R.
Under B5 stands 1.6 enrichment R.
As for B6, the binding signal worked out at 0.661 enrichment R.
B7 yielded a binding signal of 0.527 enrichment R.
On to B8, for which the binding signal came to 0.576 enrichment R.
Consider B9, for which the binding signal worked out at 0.401 enrichment R.
Take B10: the binding signal was determined as 0.851 enrichment R.
Turning to B11, the binding signal turned out to be 0.859 enrichment R.
With B12 the figure was 0.555 enrichment R; with B13, 1.5 enrichment R; with B14, 0.451 enrichment R.

(Values after publication PMC12136788.)
